Holding throughout (test): Primary Screen for Target Class Profiling of Small Molecule Inhibitors of Methyltransferases
In test [1] the target is Glycine N-methyltransferase (Homo sapiens) (UniProt Q14749). Conditions: purified enzyme, MTase-Glo SAH luminescence; measured here: GNMT inhibition; at 40 µM; stronger effect = lower value. A digest of the protocol: (§1)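 Each enzyme was reacted with SAM and its substrate, with compounds tested once at 40 uM; SAH formed was read by MTase-Glo luminescence.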
Test [2] concerns the target Guanidinoacetate N-methyltransferase (Homo sapiens) (UniProt Q14353). Conditions: purified enzyme, MTase-Glo SAH luminescence; measured here: GAMT inhibition; at 40 µM; stronger effect = lower value. A digest of the protocol: as §1
Test [3] concerns the target Histamine N-methyltransferase (Homo sapiens) (UniProt P50135). The conditions noted are these: purified enzyme, MTase-Glo SAH luminescence; measured here: HNMT inhibition; at 40 µM; stronger effect = lower value. The method in brief: as §1
For test [4], the target named is Nicotinamide N-methyltransferase (Homo sapiens) (UniProt P40261). The conditions noted are these: purified enzyme, MTase-Glo SAH luminescence; measured here: NNMT inhibition; at 40 µM; stronger effect = lower value. The method in brief:
as §1

Test [5] deals with Phenylethanolamine N-methyltransferase (Homo sapiens) (UniProt P11086). Conditions: purified enzyme, MTase-Glo SAH luminescence; measured here: PNMT inhibition; at 40 µM; stronger effect = lower value. The method in brief: as §1

The list shows a part of the results. The main result of the screen is listed elsewhere. These columns were measured beside it and carry no call.
% is set by controls: 0 for no effect and ±100 for the full control effect.

As for `CCN(CCCNC(=O)CCc1nnc2n(CC(C)C)c(=O)c3ccccc3n12)c1cccc(C)c1`, the activity change, negative = inhibition in test [1] is -7.94%; in test [2], 1.12%; in test [3], 4.57%; in test [4], -10.9%; in test [5] it was 0.323%.

`Cc1ccc(-c2n[nH]n3c2nc(=O)c2ccc(C(=O)NCc4ccccc4Cl)cc23)cc1`: the activity change, negative = inhibition in test [1] is -10.3%; in test [2], 0%; in test [3], -3.58%; in test [4], -8.28%; in test [5], -7.56%.

Turning to `O=C(O)c1cc(=O)c2c(Cl)cc(Cl)cc2[nH]1`, the activity change, negative = inhibition in test [1] was -4.17%; in test [2], 15.7%; in test [3] it was 5.23%; in test [4] it was 1.06%; in test [5] it was 12.8%.

With `COc1cc(C(O)C2COC(c3ccc(OC4OC(CO)C(O)C(O)C4O)c(OC)c3)C2CO)ccc1O` (stereo not drawn), the activity change, negative = inhibition is -0.809% in test [1]; 2.54% in test [2]; 10.1% in test [3]; -8.93% in test [4]; -3.31% in test [5].

As for `CCCNC(=O)Nc1ccc(Oc2ncnc3cc(OC)c(OC)cc23)cc1Cl`, the activity change, negative = inhibition in test [1] was -3.08%; in test [2], 4.2%; in test [3] it was 3.3%; in test [4] it was -10.3%; in test [5] it was 5.38%.

Consider `C/C=C(\C)C(=O)OC1C[C@@]2(COC(C)=O)O[C@H]2/C=C\[C@@]2(C)O[C@@H]2[C@H]2OC(=O)C(COC(C)=O)=C12` (stereo partly drawn), for which the activity change, negative = inhibition in test [1] is -3.59%; in test [2], -18.4%; in test [3], 2.82%; in test [4], -29.7%; in test [5] it was -1.71%.

`CN1CCN(C[C@@H]2CN(C(=O)CCCc3cccs3)C[C@@H]2CO)CC1`: the activity change, negative = inhibition in test [1] is 1.21%; in test [2], 3.54%; in test [3], -0.802%; in test [4], -1.49%; in test [5] it was 15.8%.

On to `CCOc1ccc(CNC(=O)C(CC)n2ccc3cc(S(=O)(=O)N4CCCCC4)ccc32)cc1` (stereo not drawn), for which the activity change, negative = inhibition in test [1] turned out to be 9.72%; in test [2], 0%; in test [3], 7.32%; in test [4], 7.62%; in test [5] it was 4.28%.

As to `Cc1ccc(S(=O)(=O)c2nnn3c2nc(NCc2ccccc2)c2ccccc23)cc1`, the activity change, negative = inhibition in test [1] is -2.67%; in test [2] it was 0%; in test [3], 4.62%; in test [4] it was 0.945%; in test [5] it was 0.075%.

With `O=C(NCc1ccccn1)Nc1nnc(-c2ccco2)o1`, the activity change, negative = inhibition is 1.61% in test [1]; -3.34% in test [2]; 1.52% in test [3]; -14.2% in test [4]; -6.4% in test [5].

For `CCCn1c(=O)c2ccc(C(=O)NC3CCCCC3)cc2n2c(SCC(N)=O)nnc12`, the activity change, negative = inhibition in test [1] came out at 1.13%; in test [2], 0%; in test [3], 3.89%; in test [4] it was 4.49%; in test [5] it was 2.76%.

Take `CCN1C(=O)c2cc(C(=O)NCc3ccc(OC)cc3)nn2CC1(C)C(=O)NC1CCCC1` (stereo not drawn): the activity change, negative = inhibition in test [1] was 4.62%; in test [2], 0%; in test [3], -0.666%; in test [4], 9.35%; in test [5] it was 4.79%.

As for `CCOc1ccccc1CN1C(=O)CSc2c(c3ccccc3n2C)C1C(=O)NCc1ccccc1` (stereo not drawn), the activity change, negative = inhibition in test [1] was 4.3%; in test [2], 0.017%; in test [3], -1.82%; in test [4] it was 2.64%; in test [5], 5.47%.

For the compound `Cc1ccc(C)c(C(=O)N[C@@H]2CN(c3ccncn3)C[C@H]2CO)c1`, the activity change, negative = inhibition was -0.299% in test [1]; -2.13% in test [2]; 1.02% in test [3]; -4.49% in test [4]; -17.6% in test [5].

Regarding `COc1ccc(C(=O)N[C@H]2CO[C@H]3[C@@H]2OC[C@@H]3Nc2nccc(-c3cccs3)n2)cc1`, the activity change, negative = inhibition in test [1] is -17.1%; in test [2] it was -1.92%; in test [3] it was -0.669%; in test [4], -4.46%; in test [5] it was -4.7%.

On to `O=C(COc1ccccc1)N[C@H]1CO[C@H]2[C@@H]1OC[C@@H]2n1nnnc1Oc1ccc2c(c1)OCO2`, for which the activity change, negative = inhibition was -2.04% in test [1]; -2.76% in test [2]; -0.931% in test [3]; 3.91% in test [4]; -3.81% in test [5].

On to `O=c1c2ccccc2n2c(-c3ccccc3F)nnc2n1Cc1ccc(F)cc1`, for which the activity change, negative = inhibition in test [1] was -10.4%; in test [2], 3.84%; in test [3] it was -2.94%; in test [4], -11.4%; in test [5] it was -0.425%.

For the compound `CN(C)C(=O)C(=O)c1cn(C)c2cc(Cl)c(C(=O)N3CCC(Cc4ccc(F)cc4)CC3)cc12`, the activity change, negative = inhibition is -7.95% in test [1]; 5.78% in test [2]; 5.12% in test [3]; -26% in test [4]; 4.16% in test [5].

For the compound `CCCn1c(=O)c2ccc(Cl)cc2n2c(=O)n(CC(=O)c3ccccc3)nc12`, the activity change, negative = inhibition in test [1] is -1.98%; in test [2] it was 1.38%; in test [3] it was 6.5%; in test [4], -6.48%; in test [5], 2.17%.

Turning to `O=C(NC[C@H]1OC[C@@H](NC2CCOCC2)[C@@H]1O)N1CCOCC1`, the activity change, negative = inhibition in test [1] was -2.6%; in test [2] it was -5.83%; in test [3] it was -1.02%; in test [4], -12.7%; in test [5], -3.2%.

Take `CC1(C(=O)NC2CCCCC2)Cn2c(nc3ccccc32)C(=O)N1Cc1ccco1` (stereo not drawn): the activity change, negative = inhibition in test [1] worked out at 3.59%; in test [2] it was 0%; in test [3], 5.21%; in test [4], 4.3%; in test [5], 1.89%.

On to `O=C([C@@H]1C[C@H](Oc2ccccc2)CN1C(=O)Nc1ccccc1F)N1CCOCC1`, for which the activity change, negative = inhibition was -4.77% in test [1]; -8.56% in test [2]; -6.15% in test [3]; -12% in test [4]; -32.2% in test [5].

Regarding `CC(C)(CO)c1cc2cc(NC(=O)C3(c4ccc5c(c4)OC(F)(F)O5)CC3)c(F)cc2n1CC(O)CO` (stereo not drawn), the activity change, negative = inhibition in test [1] was found to be 3.77%; in test [2] it was 24.2%; in test [3] it was 10.4%; in test [4], 3.84%; in test [5], 8.89%.

Turning to `CSc1cccc(N2C(=O)c3ccc(-c4ccco4)n3CC2(C)C(=O)NC2CCCC2)c1` (stereo not drawn), the activity change, negative = inhibition in test [1] is -18%; in test [2], 0%; in test [3], 0.661%; in test [4], -10.8%; in test [5], -10.2%.

Take `CC(C)CNC(=O)c1ccc2c(=O)n(C)c3nn(CC(=O)NC4CCCCC4)c(=O)n3c2c1`: the activity change, negative = inhibition in test [1] was 1.6%; in test [2], 2.55%; in test [3], 2.38%; in test [4], -4.85%; in test [5], -1.49%.

For the compound `C[C@@H](O[C@H]1OCCN(Cc2n[nH]c(=O)[nH]2)[C@H]1c1ccc(F)cc1)c1cc(C(F)(F)F)cc(C(F)(F)F)c1`, the results for the activity change, negative = inhibition in test [2], in test [4] and in test [5] were 12.5%, -15.8% and 6.49%, respectively.

Regarding `CN1C(=O)c2cc(C(=O)NC3CCCC3)nn2CC1(C)C(=O)NCc1ccccc1` (stereo not drawn), the activity change, negative = inhibition in test [1] is 5.98%; in test [2], 0.174%; in test [3], 3.78%; in test [4], 8.02%; in test [5], 2.95%.

As for `O=C(Cn1c(=O)oc2cc(S(=O)(=O)N3CCCC3)ccc21)Nc1cc(F)ccc1F`, the activity change, negative = inhibition is 1.7% in test [1]; 0% in test [2]; 5.42% in test [3]; 10.9% in test [4]; -5.22% in test [5].

In the case of `CN1[C@H](C(=O)O)C[C@H](C(=O)NCC2(CO)CCCC2)[C@@H]1c1ccccc1F`, the activity change, negative = inhibition in test [1] is -3.41%; in test [2], -13.2%; in test [3], -2.35%; in test [4], -12.5%; in test [5], -2.74%.

In the case of `COc1ccc(NC(=O)COc2ccc(NC(=O)C3CC3)cn2)cc1`, the activity change, negative = inhibition in test [1] was -10.3%; in test [2], -12.1%; in test [3], -4.61%; in test [4], -18.9%; in test [5], -14.8%.

The values are drawn from PubChem BioAssay AID1745853 (National Center for Advancing Translational Sciences (NCATS), 2022).
